This is one part of the list.
Test system: T1, Caupolican (Caup) homeodomain DNA-binding domain
T1 sequence: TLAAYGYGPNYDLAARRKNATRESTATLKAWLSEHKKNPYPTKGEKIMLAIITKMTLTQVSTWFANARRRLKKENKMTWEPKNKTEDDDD
Assay: PBM E-score (8-mer, recovered from the published 9-mer minima) (E-score (dimensionless, -0.5 to 0.5)); Drosophila protein; higher = stronger relative binding preference, active = 0.31 or more
Method in brief: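 An enrichment score, with higher meaning stronger, expresses relative binding preference for each short DNA word. The protein used was Caup's homeodomain DNA-binding domain (residues 214-303), produced by in vitro transcription and translation and tested at 100 nM on custom-designed protein binding microarrays. The 8-mer values were recovered from published 9-mer scores, each equal to the lower of its two constituent 8-mer scores.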

Sequence	PBM E-score
ATATCAGA	inactive: 0.171
TCCTCCGA	inactive: -0.137
GTAGATAA	inactive: 0.14
CCGGCGGA	inactive: -0.235
CATCAGAG	inactive: -0.063
GCTTGAAC	inactive: 0.0708
AGCAATCC	inactive: -0.0615
TACAAAGA	inactive: 0.239
CCGGACCG	inactive: -0.239
ACCGATAG	inactive: -0.0563
CAAGTGCC	inactive: -0.052
GGGACACC	inactive: -0.131
ACGTTGTA	inactive: 0.291
TACTGTGA	inactive: 0.101
ACTGGGCG	inactive: -0.167
CTCGGGAC	inactive: -0.137
AACTGAAG	inactive: 0.0247
AGACAGTC	inactive: -0.0501
AGCCAGAA	inactive: -0.135
CCTCGGAG	inactive: -0.18
GCAATGGC	inactive: -0.249
TCAAGGCA	inactive: -0.0611
AACGGATT	≥ 0.136
AGGTCCAA	inactive: -0.0444
CAGGATAA	inactive: 0.0789

Sequence	PBM E-score
CTCATTTA	inactive: 0.049
ATGCGGGG	inactive: -0.184
CCAGGAAC	inactive: -0.0704
CAATATTC	inactive: 0.0827
AACGCTAT	inactive: 0.0403
ACGATCCT	inactive: 0.0589
CAGGGCCA	inactive: -0.19
CTGATTTC	inactive: -0.0056
CACACCCG	inactive: -0.104
GCCAAAAC	inactive: -0.0419
TAATAAAA	inactive: 0.189
CTCAGCCA	inactive: -0.149
CGAATGCG	inactive: -0.0687
TAGTCGCA	inactive: 0.0299
AAGAGGGC	inactive: -0.133
ACTGTCCC	inactive: -0.0217
CAAATTAG	inactive: 0.165
GGTAATGA	inactive: 0.0999
AAGGATGG	inactive: 0.00046
GGGCTGCA	inactive: -0.163
ATCGACCC	inactive: -0.0225
GGCTGTAC	inactive: 0.108
ATCGTCGA	inactive: -0.0683
GCTAGAAC	inactive: -0.0611
CCTGGCCA	inactive: -0.188

Sequence	PBM E-score
AGGTCAAC	inactive: 0.0375
GTCTCTCA	inactive: -0.0484
ATAATACC	inactive: 0.175
CCTGGAAC	inactive: 0.0117
CCAGATCA	inactive: 0.0433
GGGTGCAC	inactive: -0.171
CGTCCGCC	inactive: -0.227
GATGCGGA	inactive: -0.0221
GAAGCGTC	inactive: -0.161
CCTCCTCG	inactive: -0.165
GAACGGGC	inactive: -0.176
AGTCTGCG	inactive: -0.0775
CAGGTACC	inactive: -0.0215
TCTCCGCA	inactive: -0.158
CACGCAGA	inactive: 0.0614
ACTACAAC	active: 0.363
AAAAACGA	inactive: 0.0759
TATGGGAA	inactive: 0.0102
AGTGGGTA	inactive: -0.0663
GTTGGGGA	inactive: -0.0561
AGCATCCC	inactive: -0.166
CACATGGG	inactive: -0.0556
AGACCGAT	inactive: -0.00106
ACAGGACC	inactive: -0.0967
CCTCCCGC	inactive: -0.221

Sequence	PBM E-score
AATGAATT	inactive: 0.121
GAAGAACC	inactive: -0.0916
GCTGACCA	inactive: -0.133
GCGAGACC	inactive: -0.104
ACTTGTTC	active: 0.33
AGGGATCC	inactive: -0.212
ATGTCGCG	inactive: 0.218
CGAGAACG	inactive: -0.0728
GGTATCAA	inactive: 0.133
AGCACGAG	inactive: 0.0197
AAGAGAGT	inactive: -0.0869
AACCAGCA	inactive: 0.0382
CCACAACC	inactive: 0.0376
CTAGAGCC	inactive: -0.095
CGGAAAAG	inactive: -0.0486
AACCTTTC	inactive: -0.0507
ATTGTCGG	inactive: 0.0859
ATTTTTGC	inactive: 0.07
GCGTGAGA	inactive: -0.142
CCACTCAC	inactive: -0.0749
GACCGCGA	inactive: -0.252
CATCCTGC	inactive: -0.0253
GCGATTAC	inactive: 0.0231
GGTACAGA	inactive: 0.152
CAAGATAG	inactive: 0.0618

Sequence	PBM E-score
CACTCTCC	inactive: -0.107
CCTTAATA	inactive: 0.00761
CCCCCCCA	inactive: -0.346
ACTGGTGA	inactive: -0.00248
GATGCATA	inactive: 0.0414
CCAAGCGA	inactive: -0.102
ATGAGGAA	≥ 0.0774
AAGCGCGG	inactive: -0.0718
GCAAGCCC	inactive: -0.142
ATAGCAAA	inactive: 0.147
CATGCGGC	inactive: -0.0576
GTATGAGA	inactive: 0.0966
CATGGTCC	inactive: -0.0724
ATACTGCG	inactive: -0.0189
ATCCCATA	inactive: 0.0616
CAAGTTGG	inactive: -0.0472
CCCGACAC	inactive: 0.0286
ATGGGTCA	inactive: 0.0229
ACAAATTA	inactive: 0.177
ATCTCCCC	inactive: -0.153
AGTGCATA	inactive: 0.069
ACTACGCA	inactive: -0.0384
AACGGGCC	inactive: -0.162
CAGAGAGC	inactive: -0.199
GGTTCGAC	inactive: 0.0215

Sequence	PBM E-score
CAACCATC	inactive: 0.0233
CCCTTAGA	inactive: -0.161
CGTTCTCA	inactive: -0.0787
TGACACAA	inactive: 0.259
CCATCCCA	inactive: -0.104
AATGTGTC	inactive: 0.23
CTCACACA	inactive: 0.0138
GAATGTCA	inactive: 0.169
CCAGACCA	inactive: -0.0928
GCTAGAAA	inactive: -0.0799
AGAATTAC	inactive: 0.168
ACGCTAGC	inactive: -0.0771
TAGCCATA	inactive: 0.0977
ATGGGAGC	inactive: -0.104
CTATGCAC	inactive: 0.00461
TGAGCCAA	inactive: -0.0599
GACACACC	inactive: 0.165
CAACTGGA	inactive: -0.00289
AAGAATTG	inactive: 0.141
GATGCGCC	inactive: -0.127
CCGCGCGC	inactive: -0.229
AACCGTGG	inactive: -0.097
ACCCAGTA	inactive: -0.061
CATTAATA	inactive: 0.133
ACGTCTCG	inactive: 0.0511

Sequence	PBM E-score
GTGGAGTA	inactive: 0.0706
ACGAACGG	inactive: 0.0258
AATAGAGA	inactive: 0.041
CATCCCCA	inactive: -0.108
CAAGCGAG	inactive: 0.0125
GCATAGAA	inactive: -0.0116
AAGCAGCT	inactive: -0.0382
ATGTGCAC	inactive: 0.14
AGAGTCCC	inactive: -0.228
GGTAGACA	inactive: 0.117
ATCTCTTA	inactive: 0.063
CTGCTGCC	inactive: -0.229
ACCGCCAC	inactive: -0.123
ACTGCAGC	inactive: -0.106
ATCGGCAA	inactive: -0.052
AAGGAATT	inactive: -0.0309
GCCGCCCC	inactive: -0.333
AGGTGAAG	inactive: -0.0405
TGTCGACA	inactive: 0.294
GTACATAA	active: 0.361
GCACCGCA	inactive: -0.175
ACAGATTC	inactive: 0.156
ATTTACAG	inactive: 0.137
AAGTGTCT	inactive: 0.136
AAAGAGTC	inactive: -0.127

Sequence	PBM E-score
CCGCTTAA	inactive: -0.0634
ACCTGGGG	inactive: -0.275
CGACGCCC	inactive: -0.161
CCAGAGGC	inactive: -0.181
CTGCATTA	inactive: -0.0833
TAAGAGTA	inactive: 0.0941
CATGATCA	inactive: 0.221
AGGCTATA	inactive: -0.0327
GGACTGGA	inactive: -0.0503
AGATATTA	inactive: 0.074
CCAGCCAG	inactive: -0.216
TACCTTCA	inactive: 0.011
GCGATCCA	inactive: -0.0156
AGACGCCA	inactive: -0.132
ACCTCCTG	≥ 0.0163
AAACTCGG	inactive: -0.0526
ACCCTGGG	inactive: -0.105
GATCAAGA	inactive: 0.00652
CACCGAGG	inactive: -0.124
AACGCGGG	inactive: -0.133
AATGAAAC	inactive: 0.136
CATCAGCC	inactive: -0.0987
CGACTAAC	inactive: 0.147
GAACCCCA	inactive: -0.0928
CGTTTGGC	inactive: -0.135

Sequence	PBM E-score
ATGGCCGC	inactive: -0.253
AGGTTGTG	inactive: 0.133
CACGTAGA	inactive: 0.0343
CCCATTCA	inactive: -0.0195
ACTTGAAA	inactive: 0.0679
ACCGATGA	inactive: 0.0195
ATACAACC	inactive: 0.258
TGAAATCA	inactive: 0.0653
CCGGGTCA	inactive: -0.18
CACATTTA	inactive: 0.18
CAGAAAGA	inactive: 0.02
CCTAGCTA	inactive: -0.0292
CCTACCAG	inactive: -0.0695
GCATACTA	inactive: 0.0358
AACAAGGA	inactive: 0.302
CCTGGGCG	inactive: -0.185
GGAGCTCC	inactive: -0.322
ATTTATCG	inactive: 0.0483
CGAGTGCC	inactive: -0.144
ACCTGGCC	inactive: -0.17
CATATACG	inactive: 0.215
ACGGAAAC	inactive: 0.0383
